Out of some 310,000 compounds screened, about 2,200 (0.71%) showed an effect of 50% or more. The effect is printed as a negative number. Some of the results follow.
The molecules below were run against human ether-à-go-go-related gene (hERG) potassium channel (human, UniProt Q12809) (assay: primary screen, population patch clamp on CHO cells stably expressing hERG).
Sequence of human ether-à-go-go-related gene (hERG) potassium channel (Q12809 whole entry, looked up): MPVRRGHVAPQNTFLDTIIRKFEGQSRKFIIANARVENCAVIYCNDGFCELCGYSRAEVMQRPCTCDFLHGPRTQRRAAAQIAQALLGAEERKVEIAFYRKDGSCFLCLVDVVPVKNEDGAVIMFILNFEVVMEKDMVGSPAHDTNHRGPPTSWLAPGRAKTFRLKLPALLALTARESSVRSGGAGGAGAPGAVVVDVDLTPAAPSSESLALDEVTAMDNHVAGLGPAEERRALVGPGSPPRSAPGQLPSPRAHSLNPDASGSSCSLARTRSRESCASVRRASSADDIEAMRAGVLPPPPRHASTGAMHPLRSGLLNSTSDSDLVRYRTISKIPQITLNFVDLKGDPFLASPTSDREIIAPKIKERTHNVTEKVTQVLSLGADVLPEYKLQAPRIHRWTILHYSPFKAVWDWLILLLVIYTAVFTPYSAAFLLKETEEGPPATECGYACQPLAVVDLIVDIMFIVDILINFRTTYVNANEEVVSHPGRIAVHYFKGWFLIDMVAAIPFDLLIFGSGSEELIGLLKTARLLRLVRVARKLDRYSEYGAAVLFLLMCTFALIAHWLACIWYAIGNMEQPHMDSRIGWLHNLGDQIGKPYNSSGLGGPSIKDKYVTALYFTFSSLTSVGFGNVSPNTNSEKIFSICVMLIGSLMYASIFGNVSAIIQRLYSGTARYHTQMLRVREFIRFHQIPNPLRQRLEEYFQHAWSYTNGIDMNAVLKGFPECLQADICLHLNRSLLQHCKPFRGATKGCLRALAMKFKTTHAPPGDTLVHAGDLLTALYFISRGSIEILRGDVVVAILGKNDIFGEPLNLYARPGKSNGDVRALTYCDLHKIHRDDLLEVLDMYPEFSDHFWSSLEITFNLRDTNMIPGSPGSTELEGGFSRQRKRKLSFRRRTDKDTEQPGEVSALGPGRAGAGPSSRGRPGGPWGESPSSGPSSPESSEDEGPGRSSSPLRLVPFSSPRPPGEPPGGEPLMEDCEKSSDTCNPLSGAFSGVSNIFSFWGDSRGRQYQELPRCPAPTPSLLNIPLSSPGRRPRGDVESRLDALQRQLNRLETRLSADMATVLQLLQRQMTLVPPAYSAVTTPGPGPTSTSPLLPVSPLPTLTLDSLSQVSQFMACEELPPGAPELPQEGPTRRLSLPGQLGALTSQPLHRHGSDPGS

Compound	hERG current change (%, negative = inhibition) at 1uM [%]
CSc1ccccc1NC(=O)CN(C)C(=O)c1c(C)nn(Cc2ccccc2)c1C	-0.458
O=C(CSc1nc2ccccc2c(=O)n1-c1ccc(F)cc1)NC1CC1	13
CC(C)(C)N(Cc1cc2ccccc2[nH]c1=O)C(=O)c1cccc([N+](=O)[O-])c1	11.4
CCOC(=O)c1[nH]c(CSc2nnc(-c3ccc(OC)cc3)o2)c(C(=O)OCC)c1C	15.6
Cc1cc(C(=O)NC2CCCN(Cc3ccccc3F)C2)n[nH]1 (centres unmarked)	16.1
NS(=O)(=O)c1ccc(NC(=O)COC(=O)CCc2ccccc2)cc1	20.5
COc1ccc(OC)c(NC(=O)C(=O)NNC(=O)COc2ccc(Br)cc2C)c1	14.8
Cc1cc(=O)n(CCC(=O)O)c2ccccc12	1.97
COC(=O)/C(=C\C=C\c1ccccc1)NC(=O)c1ccccc1	10.1
CC(=O)N1CCN(CC(O)COc2ccc(OCc3ccccc3)cc2)CC1 (centres unmarked)	7.46
Cc1nc(C)n(C(Oc2ccc(Cl)cc2Cl)C(=O)C(C)(C)C)n1 (centres unmarked)	6.26
O=C(Nc1ccccc1F)c1ccccc1C(=O)Nc1ccccc1F	16.8
COc1ccc(NC(=O)N(C2CCCCC2)C(C)c2cccnc2)c(OC)c1 (centres unmarked)	3.85
CCOC(=O)c1ccccc1NC(=O)CSc1nnnn1C1CCCCC1	2.49
CCn1ncc(C2=NOC(C(=O)Nc3c(C)nn(Cc4ccc(F)cc4)c3C)C2)c1C (centres unmarked)	14.7
Cn1ccnc1SCC(=O)Nc1ccc2c(c1)COC2=O	15.2
Cc1ccc2c(c1)C1CN(C)CCC1N2CC(=O)N(C)c1ccccc1 (centres unmarked)	5.81
C/C(=N\NS(=O)(=O)c1ccc(C(C)(C)C)cc1)c1ccccc1	13.8
COc1cccc(C(=O)NCCS(=O)(=O)NCCc2ccccc2)c1	4.91

Compound	hERG current change (%, negative = inhibition) at 1uM [%]
N#CCSc1n[nH]c2nc3c(c(=O)n12)C1(CCCC1)Cc1ccccc1-3	6.77
O=c1[nH]c2ccccc2nc1-c1cccs1	3.79
CCN(Cc1ccccc1)C(=O)CCCOc1ccccc1	7.59
CC1(C(=O)O)CCC(C(=O)NNC(=O)c2ccccc2O)C1(C)C (centres unmarked)	6.95
COc1ccccc1NC(=O)COc1cc(C)nc(C(C)C)n1	10.9
COc1ccc(-n2ncc3c(NCCN4CCOCC4)ncnc32)cc1	7.57
CC(C)C[C@H](NC(=O)c1nc[nH]c1C(=O)N[C@@H](CCCCNC(=O)OC(C)(C)C)C(=O)OC(C)(C)C)C(=O)OCc1ccccc1	7.99
O=C(CSc1nc2ccc(NC(=O)c3ccccc3C(=O)O)cc2s1)Nc1ccc(F)c([N+](=O)[O-])c1	14.6
NC(=O)N=Nc1c(O)[nH]c2c(Br)cc(Br)cc12	8.25
O=C(O)COC(=O)C1C(c2ccccc2)C(C(=O)O)C1c1ccccc1 (centres unmarked)	6.51
O=C(Nc1nncs1)C1CC(=O)N(CCc2ccc(F)cc2)C1 (centres unmarked)	27.7
Cc1ccc(N(CC2CO2)S(=O)(=O)c2ccccc2[N+](=O)[O-])cc1 (centres unmarked)	11
COC(=O)C1=C(c2ccc(Cl)c(C(F)(F)F)c2)C[C@@H]2CC[C@H]1N2C(=O)N1CCC(C)CC1	10.3
Cc1ccc(S(=O)(=O)NCCN=Cc2ccc(N(C)C)cc2)cc1	20.4
CC(C)OC(=O)c1cc2ccccc2[nH]1	3.75
Cc1ccc(C)c(NC(=O)COC(=O)CCCN=C2NS(=O)(=O)c3ccccc32)c1	-0.821
CCN(CC)c1ccc(C2=NNC(=O)CC2C)cc1[N+](=O)[O-] (centres unmarked)	15.8
CCn1cc(C(=O)N2CCN(c3ccc(F)cc3)CC2)c2cc(OC)c(OC)cc2c1=O	-41.7
Cc1ccc(C(C)C)c(OCCn2c(=O)oc3ccccc32)c1	15.9

Compound	hERG current change (%, negative = inhibition) at 1uM [%]
CC(C)CCC(C)NC(=O)C1CCN(S(=O)(=O)/C=C/c2ccccc2)CC1 (centres unmarked)	12.3
Cc1ccccc1CN1C2=NCCCN2c2ccccc21.Cl	-27.3
O=C(NCC1CCCO1)c1cn(-c2ccccc2)nc1-c1ccccc1 (centres unmarked)	13.4
COc1ccccc1Oc1ccccc1C(=O)O	-3.73
Cc1cccc(C)c1NC(=O)CSc1nc2ccccc2c(=O)[nH]1	12.8
CCN1C(=O)C(CC(=O)Nc2ccc(OC)cc2)N(CCN2CCOCC2)C1=S (centres unmarked)	2.94
COc1ccc(NC(=O)CN(C)CC(=O)NC2CCCCC2C)cc1 (centres unmarked)	11.1
CC1(C)Cc2c(sc3c2c(N)nc(=S)n3Cc2ccccc2)CO1	-17.9
O=C(c1ccccc1)c1ccc(CN2C(=O)c3ccccc3C2=O)o1	7.28
CCC(C)Nc1c([N+](=O)[O-])cc(C)cc1[N+](=O)[O-] (centres unmarked)	19.1
Cc1ccc(C)c(S(=O)(=O)NCC(=O)Nc2ccc3c(c2)OCO3)c1	10.6
COc1ccc(CNC(=O)COC(=O)CCC(=O)c2cccs2)cc1	-0.413
O=C(/C=C/c1ccc(Cl)cc1)NCc1cccs1	11.6
CCOC(=O)N1CCC(NC(=O)CCc2c(C)nc3c(c(C)nn3C(C)(C)C)c2C)CC1	3.32
CCOc1ccccc1NC(=O)CNS(=O)(=O)c1ccc2nc(C)sc2c1	10.8
COCc1nnc(NC(=O)c2ccc(S(=O)(=O)N3CCCCCC3)cc2)o1	-2.48
Fc1ccc2c(c1)C(c1cccnc1)=NNC(c1cccs1)=N2	-9.86
CCOc1ccc(NC(=S)NCc2cccnc2)cc1	-4.48

Reference: article PMC4336329 (PLoS ONE, 2015)
